Laboratory results as given in patent US10167295B2 (priority 2013, dated 2019).

Columns and labels:
[1] = biological target: T1, σ1 receptor (Homo sapiens, UniProt Q99720); assay: biochemical; details: read-out: Inhibition (%) Sigma1 (σ1)
[2] = test system: Sprague-Dawley rats; details: male rats, antagonist without agonist-antagonist, hydrochloride
[3] = biological target: T1, σ1 receptor; details: 10 μM

T1 sequence (Q99720 whole entry, species assumed): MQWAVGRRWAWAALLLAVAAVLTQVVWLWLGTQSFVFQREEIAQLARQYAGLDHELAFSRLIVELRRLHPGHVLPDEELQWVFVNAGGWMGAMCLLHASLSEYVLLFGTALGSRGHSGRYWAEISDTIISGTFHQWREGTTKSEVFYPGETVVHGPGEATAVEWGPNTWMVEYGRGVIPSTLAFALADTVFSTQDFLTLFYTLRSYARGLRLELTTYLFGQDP

Row | Structure (SMILES) | inhibition at 10 µM [1] [%] | effect on nociceptive threshold when administered alone / with saline [2] | effect on nociceptive threshold when administered alone / with saline ([2]; listed as naloxone) | binding to the σ1 receptor (in words) [3]
1 | CC(C)=CCN1CCC2(C)c3cc(O)ccc3CC1C2C.CC(O)C(=O)O (stereo not drawn) [Pentazocine, Pentazocine lactate] | 93 | – | – | –
2 | C=CCN1CC[C@]23c4c5ccc(O)c4O[C@H]2C(=O)CC[C@@]3(O)[C@H]1C5 [Naloxone, naloxone hydrochloride] | 9 | did not affect nociceptive threshold | did not have an effect on nociceptive threshold | –
3 | Oc1ccc2c3c1O[C@H]1[C@@H](O)CC[C@@]4(O)[C@@H](C2)N(CC2CCC2)CC[C@]314 [Nalbuphine, Nalbuphine hydrochloride] | -2 | – | – | does not bind to the σ1 receptor

Counter-ions that a name gives are not always drawn. Like-named read-outs stand apart in the source and are kept apart here.
